Screen size: about 39,000 compounds; about 220 (0.56%) showed activity. Some of the results follow.
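Also: static incubation at 37 °C against the wild-type strain, values averaged over two biological replicates.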

In the assay the test system is Escherichia coli K-12 BW25113. In words: relative growth (OD600 normalised to plate interquartile mean) (fraction); higher = less growth inhibition, active = 0.2 or less. As to conditions: 50 µM; LB; incubation time: overnight (16-24 h).
Consider `CO[C@H]1CN(C)C(=O)c2ccc(NC(=O)C3CC3)cc2OC[C@H](C)N(C(=O)C2CCOCC2)C[C@H]1C`, for which the relative growth is inactive: 0.991.

In the case of `C[C@@H]1CN([C@@H](C)CO)C(=O)c2cc(NC(=O)NC3CCCCC3)ccc2O[C@H]1CN(C)Cc1ccc(Cl)c(Cl)c1`, the relative growth is inactive: 1.01. To `C[C@H]1CN([C@@H](C)CO)C(=O)c2cc(NC(=O)Cc3ccccc3)ccc2O[C@H]1CN(C)Cc1ccc(Cl)c(Cl)c1` belongs inactive: 1.01; to `CO[C@@H]1CN(C)C(=O)c2ccc(NC(=O)C3CC3)cc2OC[C@H](C)N(C(=O)CN2CCOCC2)C[C@H]1C`, inactive: 0.999; to `Cc1ccc(-c2ncns2)cc1`, inactive: 0.974.

As to `C[C@H]1CCCCO[C@H](CN(C)C(=O)C2CCCCC2)[C@@H](C)CN([C@@H](C)CO)C(=O)c2cc(NS(=O)(=O)c3ccc(F)cc3)ccc2O1`, the relative growth is inactive: 1.01. To `C[C@@H]1CN([C@@H](C)CO)S(=O)(=O)c2ccc(C3=CCCC3)cc2O[C@H]1CN(C)C(=O)c1cnccn1` belongs inactive: 0.991. To `C[C@@H]1CCCCO[C@@H](CN(C)C(=O)c2ccccc2)[C@H](C)CN([C@H](C)CO)C(=O)c2cc(NC(=O)Nc3cccc4ccccc34)ccc2O1` belongs inactive: 1.03. For `C[C@H]1CN([C@@H](C)CO)C(=O)Cc2cc(NC(=O)CCN3CCOCC3)ccc2O[C@@H]1CN(C)C(=O)Nc1ccc2c(c1)OCO2` the value was inactive: 0.965; for `CN1C(=O)c2cc(NC(=O)c3ccc(F)cc3)ccc2OC[C@H]2O[C@@H](CC(=O)N3CCOCC3)CC[C@H]21`, inactive: 0.956. Turning to `Cc1ccc(Nc2c(-c3ccccc3)nc3ccccn23)cc1`, the relative growth is inactive: 1.01. To `C[C@@H]1CN([C@@H](C)CO)C(=O)c2cc(NC(=O)Cn3cnnn3)ccc2O[C@H]1CN(C)C(=O)Nc1ccc2c(c1)OCO2` belongs inactive: 1; to `C[C@H](CO)N1C[C@H](C)[C@@H](CN(C)C(=O)Nc2ccc(C(F)(F)F)cc2)OCCCC[C@H](C)Oc2ccc(NC(=O)Nc3ccc(C(F)(F)F)cc3)cc2C1=O`, inactive: 1.05; to `Cc1ccc(S(=O)(=O)N2C[C@@H](O)COC[C@H]3O[C@@H](CC(=O)NCCN4CCCCC4)CC[C@@H]32)cc1`, inactive: 1.04. For the compound `COc1ccc(CNC(=O)N(C)C[C@H]2OCc3ccccc3-c3c(n(C)c4ccccc34)C(=O)N([C@H](C)CO)C[C@@H]2C)cc1`, the relative growth was inactive: 1.01.

Take `C[C@@H]1CN([C@H](C)CO)C(=O)c2ccccc2-c2ccccc2CO[C@@H]1CN(C)S(=O)(=O)c1ccc(C(F)(F)F)cc1`: the relative growth was inactive: 1.03. For `C[C@@H]1CN([C@@H](C)CO)C(=O)c2cc(NC(=O)C3CCCCC3)ccc2O[C@@H](C)CCCCO[C@H]1CN(C)S(=O)(=O)c1ccccc1` the value was inactive: 1.01. To `C[C@@H]1CN([C@@H](C)CO)C(=O)c2cc(-c3cncnc3)cnc2O[C@H]1CN(C)C(=O)CN1CCOCC1` belongs inactive: 0.956. To `CO[C@H]1CN(C)C(=O)c2cc(NC(=O)C3CC3)ccc2OC[C@@H](C)N(C(=O)CN2CCOCC2)C[C@@H]1C` belongs inactive: 0.978; to `C[C@H](CO)N1C[C@H](C)[C@H](CN(C)C(=O)Nc2ccc(F)cc2)Oc2ccc(NC(=O)Cn3cnnn3)cc2CC1=O`, inactive: 0.986.

`C[C@H]1CN([C@@H](C)CO)C(=O)c2cccc(NC(=O)Nc3ccc(F)cc3)c2O[C@H]1CN(C)S(=O)(=O)c1cn(C)cn1`: the relative growth is inactive: 0.994. For `COc1ccc(-c2cnc3c(c2)C(=O)N([C@H](C)CO)C[C@H](C)[C@H](CN(C)S(=O)(=O)c2cccs2)O3)cc1` the value was inactive: 1.01. For `CCCNC(=O)N1C[C@H](C)[C@@H](OC)CN(C)C(=O)c2ccc(NS(=O)(=O)CC(F)(F)F)cc2OC[C@H]1C`, the relative growth was inactive: 0.959.

Consider `C[C@@H]1CN([C@H](C)CO)C(=O)c2cc(NS(=O)(=O)c3cccs3)ccc2O[C@@H](C)CCCCO[C@H]1CN(C)C(=O)Nc1ccc(F)cc1`, for which the relative growth is inactive: 1.02. In the case of `C[C@H]1CN([C@@H](C)CO)S(=O)(=O)c2ccc(C#Cc3ccc(F)cc3)cc2O[C@H]1CN(C)S(=O)(=O)c1cn(C)cn1`, the relative growth was inactive: 1.03. To `COc1ccc(N2C(=O)N(CCc3ccc(OC)c(OC)c3)[C@@H]3[C@@H](Cc4ccccc4)[C@H]2C(=O)N3Cc2ccccc2)cc1` belongs inactive: 1.02. For `C[C@@H]1C[C@H]1C(=O)O` the value was inactive: 0.986; for `COc1ccc(CN(C)C[C@H]2OCCCC[C@H](C)Oc3ccc(NC(=O)Nc4ccccc4)cc3C(=O)N([C@@H](C)CO)C[C@@H]2C)cc1`, inactive: 1.01; for `O=C(C[C@H]1C[C@@H]2c3cc(NC(=O)NC4CCCC4)ccc3O[C@@H]2[C@@H](CO)O1)NCc1ccc(-c2ccccc2)cc1`, inactive: 0.955. Regarding `COC(=O)COc1nsnc1N1CCOCC1`, the relative growth was inactive: 0.985.

As for `COc1ccc(NC(=O)Nc2ccc3c(c2)C(=O)N([C@H](C)CO)C[C@H](C)[C@H](CN(C)S(=O)(=O)c2cccs2)OCCCC[C@@H](C)O3)cc1`, the relative growth is inactive: 1.01. For `C[C@@H]1CN([C@H](C)CO)C(=O)c2cc(C#CCN(C)C)cnc2O[C@H]1CN(C)C(=O)CN1CCOCC1` the value was inactive: 1; for `C[C@@H]1CN([C@@H](C)CO)C(=O)c2cc(NC(=O)Cn3cnnn3)ccc2O[C@H]1CN(C)S(=O)(=O)c1ccccc1`, inactive: 0.996; for `Cc1ccc(S(=O)(=O)Nc2ccc3c(c2)C(=O)N([C@H](C)CO)C[C@H](C)[C@H](CN(C)C(=O)Nc2cccc4ccccc24)OCCCC[C@@H](C)O3)cc1`, inactive: 1. To `C[C@@H]1CN([C@@H](C)CO)C(=O)c2ccccc2-c2ccccc2CO[C@H]1CN(C)C(=O)c1cc(Cl)cc(Cl)c1` belongs inactive: 0.997; to `Cc1noc(C)c1S(=O)(=O)Nc1ccc2c(c1)CC(=O)N([C@@H](C)CO)C[C@H](C)[C@@H](CN(C)C(=O)Nc1ccc3c(c1)OCO3)O2`, inactive: 1.04. Turning to `C[C@@H]1CN([C@H](C)CO)C(=O)c2cc(C#Cc3ccccc3F)cnc2O[C@H]1CN(C)S(=O)(=O)c1ccccc1F`, the relative growth is inactive: 1.03.

For the compound `O=C(C[C@@H]1CC[C@@H]2[C@H](COC[C@H](O)CN2S(=O)(=O)c2cccc(Cl)c2)O1)N1CCOCC1`, the relative growth was inactive: 1. For `Cc1ccc2ccccc2n1` the value was inactive: 1.04; for `CO[C@@H]1CN(C)C(=O)c2cc(NC(=O)NC(C)C)ccc2OC[C@@H](C)N(Cc2ccc(-c3ccccn3)cc2)C[C@H]1C`, inactive: 1; for `C[C@H]1CN([C@@H](C)CO)C(=O)c2c(c3ccccc3n2C)-c2ccccc2CO[C@@H]1CN(C)C(=O)c1ccc(F)cc1`, inactive: 1.04.

For the compound `Cc1ccc(S(=O)(=O)Nc2ccc3c(c2)C(=O)N([C@H](C)CO)C[C@H](C)[C@H](CN(C)S(=O)(=O)c2ccc(Cl)cc2)OCCCC[C@@H](C)O3)cc1`, the relative growth is inactive: 1.01. Regarding `CC(C)(O)C#Cc1ccc([C@@H]2[C@@H](CO)N3CCCCN(S(C)(=O)=O)C[C@H]23)cc1`, the relative growth is inactive: 0.984. For `C[C@H](CO)N1C[C@H](C)[C@H](CN(C)C(=O)Nc2ccccc2)OCCCC[C@H](C)Oc2ccc(NS(=O)(=O)c3cccs3)cc2C1=O` the value was inactive: 1.01; for `C[C@H](CO)N1C[C@H](C)[C@H](CN(C)C(=O)Nc2ccc(F)cc2)OCCCC[C@H](C)Oc2ccc(NC(=O)Cc3ccccc3)cc2C1=O`, inactive: 1. For `C[C@H](CO)N1C[C@H](C)[C@@H](CN(C)C(=O)CN2CCOCC2)Oc2ncc(C3=CCCCC3)cc2C1=O` the value was inactive: 0.999; for `CNC[C@@H]1Oc2cc(C#CC(C)(C)O)ccc2S(=O)(=O)N([C@@H](C)CO)C[C@H]1C`, inactive: 1.01; for `C[C@@H]1CCCCO[C@H](CN(C)Cc2ccncc2)[C@@H](C)CN([C@H](C)CO)C(=O)c2cc(NC(=O)c3ccccc3)ccc2O1`, inactive: 0.993. For `C[C@@H]1CN([C@@H](C)CO)C(=O)Cc2cc(NC(=O)Cn3cnnn3)ccc2O[C@H]1CN(C)Cc1ccc(C(=O)Nc2ccccc2N)cc1` the value was inactive: 1.01.

For `COc1ccc(NC(=O)N(C)C[C@H]2Oc3ccc(NS(C)(=O)=O)cc3CC(=O)N([C@H](C)CO)C[C@H]2C)cc1`, the relative growth is inactive: 1.02.

Consider `COc1cccc(C#Cc2ccc3c(c2)O[C@H](CN(C)C(=O)CN2CCOCC2)[C@@H](C)CN([C@H](C)CO)S3(=O)=O)c1`, for which the relative growth is inactive: 1.03. `C[C@@H]1CCCCO[C@H](CN(C)Cc2ccc(C(F)(F)F)cc2)[C@@H](C)CN([C@H](C)CO)C(=O)c2cc(NS(=O)(=O)c3ccccc3)ccc2O1`: the relative growth was inactive: 1.01. For `COCc1cn(CC[C@@H]2CC[C@@H](NC(=O)CCN3CCCCC3)[C@@H](CO)O2)nn1` the value was inactive: 1.02.

As for `CC1=C(C(=O)O)N2C(=O)C(NC(=O)C(N)c3ccccc3)C2SC1` (stereo unspecified), the relative growth is inactive: 1.03. For `COc1ccc2c(c1)C(=O)C(=O)N2` the value was inactive: 0.974. To `COc1ccccc1-c1ccc2c(c1)O[C@@H](CN(C)CC1CCOCC1)[C@@H](C)CN([C@@H](C)CO)S2(=O)=O` belongs inactive: 0.987; to `C[C@H](CO)N1C[C@H](C)[C@H](CN(C)S(=O)(=O)c2ccc(Cl)cc2)Oc2c(NC(=O)c3ccc(-c4nccs4)cc3)cccc2C1=O`, inactive: 0.996. Take `CO[C@@H](CN(C)S(=O)(=O)c1cccc(Cl)c1)[C@@H](C)CN([C@@H](C)CO)S(=O)(=O)c1ccc(Cl)cc1`: the relative growth was inactive: 1. To `CS(=O)(=O)N1[C@@H]2c3ccc(-c4ccccc4)c(=O)n3C[C@H]1[C@H](CO)[C@H]2C(=O)NCC1CC1` belongs inactive: 0.977; to `Cc1c(/C=N/O)sc2ccccc12`, inactive: 0.975; to `Cc1noc(C)c1NC(=O)Nc1ccc2c(c1)C(=O)N([C@@H](C)CO)C[C@H](C)[C@H](CN(C)Cc1ccc(C(=O)O)cc1)OCCCC[C@@H](C)O2`, inactive: 0.992.
